According to the supplement of paper PMC10338343:
± gives the standard deviation. Whole data set: some 3,700 sequences, median “pre-steady-state target cleavage rate” near 0.02, cut for the highest 2% near 0.23. The entries are a selection whose mix differs from that of the whole data set.

tested on: MILI (PIWIL2) piRISC loaded with Kctd7 piRNA (26 nt); experiment: pre-steady-state target cleavage rate (min^-1); MIWI and MILI are mouse PIWI proteins and EfPiwi is from a freshwater sponge; tags in brackets are library labels; higher = faster piRNA-guided slicing of the target; details: guide: Kctd7 piRNA 5'p-UGUUAAUCUCUCAGAGAAGGUGACAG; auxiliary factor: 500 nM mouse GTSF1
Procedure, shortened: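 The method was Cleave-'n-Seq, in which uncleaved targets from a transcribed, DNA-blocked target RNA library were sequenced after exposure to active affinity-purified piRISC carrying one synthetic guide, with or without GTSF1 partner protein. Reactions contained 0.1 nM library, 1 nM piRISC and, where present, 500 nM GTSF1 in HEPES–potassium acetate buffer at 33 °C for 0–8 or 0–960 min. Reads were normalised to depth and to weakly complementary targets, three trials were pooled, and k3 was capped at 0.0001 min^-1. The pre-steady-state cleavage rate came from a burst-and-steady-state fit.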

Sequence | pre-steady-state target cleavage rate
UAGUCUGUCACCUUCACUGAGAGAUUAAGA | 0.044 ± 0.015
UAGUGACAGACCUUGACUGAGAGAUUUUGA | < 0.0001
UAGUCUGUCACCUUCUGAGAGAGAUUAACA | 0.0742 ± 0.0084
UAGUGACAGUGCUUCUCUCAGAGAUUUACA | 0.00586 ± 0.003
UAGUGACUCUACCUUCUCUGAGAGAUUAACA | 0.108 ± 0.0064
UAGUGACACAGCAUCUCUGAGAGAUUAACA | 0.0345 ± 0.0057
UAGUCUGUCACCUUCACUGAGAGAUUUUGA | 0.173 ± 0.06
UAGUGACAGACCUACUGUGAGAGAUUAACA | 0.0731 ± 0.016
UAGUGAGUCACCUUCAGUGAGAGAUUAACA | 0.139 ± 0.014
UAGUGAGUCACCUUCUCUGAGAGUUUUUGA | 0.105 ± 0.036
UAGUGAGUCACCUUCUCUGUCAGAUUAACA | 0.00721 ± 0.0036
UAGUCUGUCACCUACUCUGAGAGAUUAUCA | 0.149 ± 0.021
UAGUGAGUCACCUUCUCUGAGAGAUUUAGA | 0.0242 ± 0.014
UAGUGACAGUCCUUCUCUGAGACAUUAUCA | < 0.0001
UAGUGACAGUGCUUCUCUGAGAGAUUAGCA | 0.00333 ± 0.0027
UAGUGACAGUCCUUCUCUGAGAGAUUAAA | 0.0128 ± 0.0041
UAGUGUCUCACCUUCUCUGACAGAUUAACA | 0.0612 ± 0.0098
UAGUGACAGUCCUCUCUGAGAGAUUAACA | 0.0101 ± 0.0026
UAGUGACUCACGUUCUCUGAGAGAUUAAGA | 0.0335 ± 0.0083
UAGUGACAGAGCUUCUCUGACAGAUUAACA | 0.0115 ± 0.0042
UAGUGAGUCCCUUCUCUGAGAGAUUAACA | 0.191 ± 0.021
UAGUCUGUCACGUUCUCUGAGACAUUAACA | 0.00948 ± 0.0017
UAGUGUGUCACCAUCUCUGUGAGAUUAACA | 0.0443 ± 0.0052

Sequence | pre-steady-state target cleavage rate
UAGUGACUCACCUUCUGAGAGAGAUUAUGA | 0.00932 ± 0.0043
UAGUGACACACCUUCUGAGAGAGAUUUUGA | 0.00542 ± 0.0052
UAGUGACAGUCCUUCUCAGAGAGAUUAACA | 0.0226 ± 0.0049
UAGUGACUCACGUUCUCUCAGAGAUUAACA | 0.0479 ± 0.0085
UAGUGUGUCACGUUCUCUGAGAGAUUAUGA | 0.0291 ± 0.012
UAGUGACAGUGGAAGUCUGAGAGACUUAACA | < 0.0001
UAGUGUGUCACCAAGUCUGAGAGAUUAACA | 0.0703 ± 0.0064
UAGUGACACACCUUCUCUGAGAGUAUUAACA | 0.156 ± 0.017
UAGUGACUCACCUUGUCUGAGAGAUUAAGA | 0.00895 ± 0.0061
UAGUGACACAGCUUCUCUGAGAGAUAAACA | 0.0211 ± 0.0068
UAGUGACUCACCUCUCUCUGAGAGAUUAACA | 0.134 ± 0.012
UAGUGACAGUGCUUCUCUGAGAGUAAUUGA [g8:g19:cont:t1A] | < 0.0001
UAGUGUCUCACCUUCUCAGAGAGAUUAACA | 0.0883 ± 0.01
UAGUGACAGAGCCUUCUCUGAGAGAUUAACA | 0.0563 ± 0.0061
UAGUCUGUCACCUUCUGUGAGUGAUUAACA | 0.00564 ± 0.0034
UAGUGUGUCACCUACUCUGAGUGAUUAACA | 0.00652 ± 0.0051
UAGUCUGUUACCUUCUCUGAGAGAUUAACA | 0.145 ± 0.011
UAGUGACAGUCCUUCUCUGAGACAUUAAGA | < 0.0001
UAGUGACAGUCCUUCUCUGAGAGAUUAAACA | 0.0891 ± 0.015
UAGUCGUCACCUUCUCUGAGAGAUUAACA | 0.208 ± 0.014
UAGUGAGUCACCUUCUCUGAGAGAUUACCA | 0.251 ± 0.05
UAGUGAGUCACCUACUCUGAGAGAUAAACA | 0.085 ± 0.022
UAGUGACUCACCUUCCUCUGAGAGAUUAACA | 0.0478 ± 0.0085

Sequence | pre-steady-state target cleavage rate
UAGUCAGUCACCUUCUCUGAGUGAUUAACA | 0.00651 ± 0.0043
UAGUGACAGUGGAUCUCUGAGAAAUUAACA | < 0.0001
UAGUGUGUCACCUUCACUGAGAGAUUUACA | 0.107 ± 0.025
UAGUGAGUCACCUUCUCUGUGACAUUAACA | 0.0173 ± 0.0054
UAGUGACAGACCUUCUCUGAGAGAUUGAACA | 0.0765 ± 0.018
UAGUGUGUCACCUUCAGAGAGAGAUUAACA | 0.02 ± 0.01
UAGUGACUCAGCUUCUCUCAGAGAUUAACA | 0.0341 ± 0.0077
UAGUCUGUCACCUUCUCUGAGGAUUAACA | 0.0778 ± 0.025
UAGUGAGUGACCUUCUCUGAGAGAUUUACA | 0.12 ± 0.027
UAGUGACAGACCUUCUCUGAGAGAAUAACA | 0.0149 ± 0.0057
UAGUGACUCACCUUCUCUGUGAGUUUAACA | 0.0218 ± 0.0099
UAGUCUGACUCCUUCUCUGAGAGAUUAACA | 0.161 ± 0.0079
UAGUGACAGUGGAACUCUGAGACUAUAACA | 0.0129 ± 0.013
UAGUGACAGUGCUUCACUGAGACAUUAACA | 0.00422 ± 0.0028
UAGUGACAGUGCUUCUCUGAGAGAUUCAACA | 0.0213 ± 0.0067
UAGUGACAGACCUUCUCUGAGAGAUUAACC [g2:g21:cont:t1C] | 0.0879 ± 0.011
UAGUGACAGUCCUGCUCUGAGAGAUUAACA | 0.0774 ± 0.0063
UAGUCUGAGUCCUUCUCUGAGAGAUUAACA | 0.0823 ± 0.0084
UAGUCUGUCACCAUCUCAGAGAGAUUAACA | 0.102 ± 0.013
UAGUGACUCUCCUUCUCUGAGAGAUUAUGA | 0.00854 ± 0.004
UAGUGACAGUGCUUCUCUGAGAGUAUUAACA | 0.0314 ± 0.0056
UAGUGACAGUCCAUCUCUGACAGAUUAACA | 0.00443 ± 0.0018
